Source: the supplement of paper PMC11166567
This is one part of the list.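 Rule for the calls: active = permutation test q below 0.05 after Benjamini-Hochberg correction; inactive = q of 0.05 or more.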

What was measured:
[1] = test system: A549; test: mean average precision of replicate retrieval against DMSO controls (Cell Painting phenotypic activity) (fraction (0-1)); higher = stronger, more reproducible morphological phenotype distinct from DMSO; extreme values may be limits of the assay; conditions: 5 µM
[2] = test system: U2OS; test: as above; conditions: 5 µM
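Note: cosine similarity of well-level aggregated Cell Painting profiles ranks each compound's replicate wells against DMSO wells, four replicate plates, significance from 100,000 rank shuffles.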

With O=C(O)c1cccnc1Nc1cccc(C(F)(F)F)c1 the mean average precision ([1]; 24 h) was active: 0.437, the mean average precision ([1]; 48 h) was active: 0.67 and the mean average precision ([2]; 24 h) was inactive: 0.263. The mean average precision ([2]; 48 h) was inactive: 0.0737.

C/C=C1\NC(=O)[C@H]2CSSCC/C=C/[C@H](CC(=O)N[C@H](C(C)C)C(=O)N2)OC(=O)[C@H](C(C)C)NC1=O was tested, and the mean average precision ([1]; 24 h) was active: 1, the mean average precision ([1]; 48 h) was active: 1 and the mean average precision ([2]; 24 h) was active: 1. The mean average precision ([2]; 48 h) was active: 1.

For O=C(NNC(=O)c1ccc(CNS(=O)(=O)c2ccc(F)c(Cl)c2)cc1)c1ccccc1, the mean average precision ([1]; 24 h) was inactive: 0.265, the mean average precision ([1]; 48 h) was active: 0.575 and the mean average precision ([2]; 24 h) was active: 0.588. The mean average precision ([2]; 48 h) was active: 0.422.

With CC(C)C(=O)c1ccc(O)c(O)c1 the mean average precision ([1]; 24 h) was active: 0.728, the mean average precision ([1]; 48 h) was active: 1 and the mean average precision ([2]; 24 h) was active: 0.475. For the same compound, the mean average precision ([2]; 48 h) was inactive: 0.235.

Cc1ccc([N+](=O)[O-])cc1S(=O)(=O)N(C)C was tested, and the mean average precision ([1]; 24 h) was inactive: 0.277, the mean average precision ([1]; 48 h) was active: 0.53 and the mean average precision ([2]; 24 h) was inactive: 0.281. For the same compound, the mean average precision ([2]; 48 h) was inactive: 0.284.

For CN1C/C=C/CCOc2cccc(c2)-c2ccnc(n2)Nc2cccc(c2)C1, the mean average precision ([1]; 24 h) was active: 1, the mean average precision ([1]; 48 h) was active: 1 and the mean average precision ([2]; 24 h) was active: 1. The mean average precision ([2]; 48 h) was active: 1.

With CCCC(=O)O the mean average precision ([1]; 24 h) was active: 0.599, the mean average precision ([1]; 48 h) was active: 0.925 and the mean average precision ([2]; 24 h) was active: 1. The mean average precision ([2]; 48 h) was active: 0.967.

For c1cc(-c2cnn3cc(-c4ccc(N5CCNCC5)cc4)cnc23)c2cccnc2c1, the mean average precision ([1]; 24 h) was active: 0.607, the mean average precision ([1]; 48 h) was active: 1 and the mean average precision ([2]; 24 h) was active: 0.958. For the same compound, the mean average precision ([2]; 48 h) was active: 1.

With CC1=CC(=O)c2ccccc2C1=O the mean average precision ([1]; 24 h) was active: 0.642, the mean average precision ([1]; 48 h) was active: 1 and the mean average precision ([2]; 24 h) was active: 1. For the same compound, the mean average precision ([2]; 48 h) was active: 1.

In the case of CCCCCCCCO, the mean average precision ([1]; 24 h) was active: 0.338, the mean average precision ([1]; 48 h) was active: 0.446 and the mean average precision ([2]; 24 h) was inactive: 0.316. The mean average precision ([2]; 48 h) was active: 0.4.

With Clc1ccc(COC(Cn2ccnc2)c2ccc(Cl)cc2Cl)c(Cl)c1 (centres undefined) the mean average precision ([1]; 24 h) was active: 0.481, the mean average precision ([1]; 48 h) was active: 0.794 and the mean average precision ([2]; 24 h) was active: 0.847. The mean average precision ([2]; 48 h) was active: 0.702.

In the case of OC(CCN1CCCCC1)(c1ccccc1)C1CCCCC1 (centres undefined), the mean average precision ([1]; 24 h) was active: 0.39, the mean average precision ([1]; 48 h) was active: 0.681 and the mean average precision ([2]; 24 h) was inactive: 0.114. For the same compound, the mean average precision ([2]; 48 h) was inactive: 0.0897.

For Cc1[nH]c(/C=C2\C(=O)Nc3ccccc32)c(C)c1CCC(=O)O, the mean average precision ([1]; 24 h) was active: 0.483, the mean average precision ([1]; 48 h) was active: 0.951 and the mean average precision ([2]; 24 h) was active: 0.75. For the same compound, the mean average precision ([2]; 48 h) was active: 0.5.

With C(#Cc1nc2ncccc2nc1OCCN1CCCC1)c1ccccc1 the mean average precision ([1]; 24 h) was active: 1, the mean average precision ([1]; 48 h) was active: 1 and the mean average precision ([2]; 24 h) was active: 1. The mean average precision ([2]; 48 h) was active: 1.

With O=C(NCCCN1CCC2(CC1)OCc1ccccc12)[C@H]1CCCN1Cc1ccccc1 the mean average precision ([1]; 24 h) was active: 1, the mean average precision ([1]; 48 h) was active: 1 and the mean average precision ([2]; 24 h) was active: 1. The mean average precision ([2]; 48 h) was active: 1.

In the case of Nc1ncn([C@@H]2O[C@H](CO)[C@@H](O)[C@H]2O)c(=O)n1, the mean average precision ([1]; 24 h) was active: 1, the mean average precision ([1]; 48 h) was active: 1 and the mean average precision ([2]; 24 h) was active: 0.99. The mean average precision ([2]; 48 h) was active: 0.897.

For NS(=O)(=O)c1ccc(C(=O)O)cc1, the mean average precision ([1]; 24 h) was active: 0.939, the mean average precision ([1]; 48 h) was active: 1 and the mean average precision ([2]; 24 h) was active: 0.831. For the same compound, the mean average precision ([2]; 48 h) was active: 0.456.

O=C(Nc1nc2cccc(-c3ccc(CN4CCS(=O)(=O)CC4)cc3)n2n1)C1CC1 was tested, and the mean average precision ([1]; 24 h) was active: 1, the mean average precision ([1]; 48 h) was active: 1 and the mean average precision ([2]; 24 h) was active: 0.798. For the same compound, the mean average precision ([2]; 48 h) was active: 0.938.

For CO[C@H]1C=CO[C@@]2(C)Oc3c(C)c(O)c4c(O)c(cc(O)c4c3C2=O)NC(=O)/C(C)=C\C=C/[C@H](C)[C@H](O)[C@@H](C)[C@@H](O)[C@@H](C)[C@H](OC(C)=O)[C@@H]1C, the mean average precision ([1]; 24 h) was active: 0.398, the mean average precision ([1]; 48 h) was active: 0.448 and the mean average precision ([2]; 24 h) was inactive: 0.24. For the same compound, the mean average precision ([2]; 48 h) was active: 0.489.

In the case of COC(=O)C[C@](O)(CCCC(C)(C)O)C(=O)O[C@@H]1C(OC)=C[C@]23CCCN2CCc2cc4c(cc2[C@H]13)OCO4, the mean average precision ([1]; 24 h) was active: 1, the mean average precision ([1]; 48 h) was active: 1 and the mean average precision ([2]; 24 h) was active: 1. The mean average precision ([2]; 48 h) was active: 1.

Nc1ncnc2c1c(-c1cccc(OCc3ccccc3)c1)cn2C1CC(CN2CCC2)C1 (centres undefined) was tested, and the mean average precision ([1]; 24 h) was active: 1, the mean average precision ([1]; 48 h) was active: 1 and the mean average precision ([2]; 24 h) was active: 1. For the same compound, the mean average precision ([2]; 48 h) was active: 1.

CN(C)C(=O)C(CCN1CCC(O)(c2ccc(Cl)cc2)CC1)(c1ccccc1)c1ccccc1 was tested, and the mean average precision ([1]; 24 h) was active: 1, the mean average precision ([1]; 48 h) was active: 1 and the mean average precision ([2]; 24 h) was active: 1. For the same compound, the mean average precision ([2]; 48 h) was active: 0.752.

With CCCc1cc(C)[nH]c(=O)c1CNC(=O)c1cc(-c2ccc(N3CCN(C(C)C)CC3)nc2)cc2c1cnn2C(C)C the mean average precision ([1]; 24 h) was active: 1, the mean average precision ([1]; 48 h) was active: 1 and the mean average precision ([2]; 24 h) was active: 1. For the same compound, the mean average precision ([2]; 48 h) was active: 1.

With NS(=O)(=O)c1cccc2c1c([N+](=O)[O-])cc1[nH]c(=O)c(=O)[nH]c12 the mean average precision ([1]; 24 h) was inactive: 0.173, the mean average precision ([1]; 48 h) was active: 0.579 and the mean average precision ([2]; 24 h) was inactive: 0.0365. The mean average precision ([2]; 48 h) was inactive: 0.1.

OC(CN1CCNCC1)Cn1c2ccc(Br)cc2c2cc(Br)ccc21 (centres undefined) was tested, and the mean average precision ([1]; 24 h) was active: 1, the mean average precision ([1]; 48 h) was active: 1 and the mean average precision ([2]; 24 h) was active: 1. For the same compound, the mean average precision ([2]; 48 h) was active: 1.

Cc1c(-c2ccnn2C)cc(C(=O)NCc2ccc(S(C)(=O)=O)cn2)c(=O)n1-c1cccc(C(F)(F)F)c1 was tested, and the mean average precision ([1]; 24 h) was active: 0.521, the mean average precision ([1]; 48 h) was active: 0.731 and the mean average precision ([2]; 24 h) was active: 0.342. The mean average precision ([2]; 48 h) was inactive: 0.164.
